Source: PubChem BioAssay AID902 (National Center for Advancing Translational Sciences (NCATS), 2007)
In all, about 130,000 compounds went through this assay and about 1,900 (1.5%) were called active. The shares of active, inactive and inconclusive entries below differ from those in the screen. Calls come from the whole dose curve; as a rule, active = well fitted cell-killing curve with a large enough effect; inconclusive = small, poorly fitted or top-dose-only effect; inactive = no such curve, though single readings can be large or run the other way. Where the call is inconclusive, the potency comes from a doubtful curve fit.

Assay: qHTS Screen for Compounds that Selectively Target Cancer Cells with p53 Mutations: Cytotoxicity of p53ts Cells at the Nonpermissive Temperature; note: nearly all actives have a fitted effect of over 55% in size
Conditions: H1299-p53A138V viability at 39C, ATP luminescence, 24 h; activity change, negative = cell killing: at 46.1 µM (top of the series)
Source text: NIH Chemical Genomics Center [NCGC] NIH Molecular Libraries Screening Centers Network [MLSCN] MLSCN Grant: 1 X01 MH079844-01 Assay Submitter (PI): Dr. SUN, YI, University of Michigan NCGC Assay Overview: Synthetic Lethal Screen for Compounds to Kill Cancer Cells with p53 Mutation. Tumor suppressor gene p53 serves as a major cellular barrier against tumorigenesis. […] The goal of this screening is to identify small molecule probes that selectively kill cancer cells with mutations in p53. This screening was carried out using two lines of H1299 lung cancer cells. The H1299-p53 A138V line express a temperature sensitive p53 mutant (p53ts) in which the mutant p53 protein (A138V) is in the mutant confirmation when grown at 39C (the nonpermissive temperature) and in the wild type conformation when grown at 32C (the permissive temperature). A H1299-neo line (p53 null) grown at both 39C and 32C were used as counter-screens to filter out false positive associated with temperature shifting. The small molecular compounds that selectively target mutant p53-containing cancer cells were selected as candidate probes for further study. A cytotoxicity assay based on the measurement of ATP contents in cells was used in this screen. Concentration-responses of all the compounds in the library collection were determined in qHTS using the cell lines and temperature conditions as above.
NCGC Assay Protocol Summary: Both the H1299-p53A138V and H1299-neo cell lines were provided by Dr.Yi Sun, a PI at the University Michigan. The cells were maintained and cultured at 37C. The resuspended frozen cells were used to plate the cells in the 1536-well assay plates at a density of 600 cells per well in 5 ul medium. The assay plates with the cells were incubated at 37C for 16 to 30 hours before the experiments. The library compounds in DMSO solution were added to the cells in assay plates and incubated 24 hours at 39C (for mutant p53 conformation) or 32C (for normal p53 conformation as control). An ATP_lite assay kit (PerkinElmer) was used to determine the cell viability. Tomaxifen (100uM) was used as the positive control for cell killing. Data were normalized to the controls for basal activity (DMSO only) and 100% killing (100uM tamoxifen). AC50 values were determined from concentration-response data modeled with the standard Hill equation. P53 assay protocol: 1. Reagent; 5 uL H1299-p53A138V or H1299-neo cell cells/well 2. Time; overnight; 37C incubation 3. Compounds; 23 nL; 5.9 nM to 46 uM 4. Controls; 23 nL; Tamoxifen 100 uM 5. Time; 24 hr; 39C incubation 6. Reagent; 3 uL; ATP_Lite reagent 7. Time; 20 min; Room Temperature 8. Detection; Luminescence; Viewlux plate reader Keywords: p53, synthetic lethal, cancer, cell viability, cytotoxicity, H1299 cell line, luminescence, MLSMR, MLSCN, NIH Roadmap, qHTS, NCGC
% is set by controls: 0 for no effect and ±100 for the full control effect; potency is the fitted concentration of half-maximal effect; tags give direction and shape of the fitted curve.

SMILES | Potency | activity change, negative = cell killing
Cn1c(=O)c2cc(C(=O)NCCCN3CCN(c4ccc(F)cc4)CC3)sc2c2ccccc21 | inconclusive: 31.6 µM [cytotoxic, single point] | –
CN1CCN(Cc2nc3c(c(=O)[nH]c(=O)n3C)n2Cc2c(F)cccc2Cl)CC1 | – | inactive: 6.05%
CC1CCN(C(=O)Cn2cc(SCC(=O)NCc3ccc(F)cc3)c3ccccc32)CC1 | – | inactive: -1.12%
C=C(C)CN(CC#N)CC(=C)C | – | inactive: -20.1% [at 9.22 µM]
COc1ccc(Cn2c(SCC(=O)N3CCN(c4ccc(F)cc4)CC3)nc3ccccc32)cc1 | inconclusive: 12.6 µM [cytotoxic, partial curve] | –
Cc1ccc2scc(N3CCCCC3C)c(=O)c2c1 (stereo not drawn) | active: 6.31 µM | –
Cc1ccc(NC2(c3ccccc3)C(=O)c3ccccc3C2=O)cc1F | – | inactive: 6.9%
Cc1ccccc1C(=O)Nc1cccc(NC(=O)c2ccc(C(C)(C)C)cc2)c1 | active: 12.6 µM | –
CCc1ccc(NC(=O)CSc2ccc(-c3sc(-c4ccccc4)nc3C)nn2)cc1 | – | inactive: -18.2%
Cc1ccccc1Cn1c(CN2CCc3ccccc3C2)nc2c1c(=O)n(C)c(=O)n2C | – | inactive: 14.4%
CCC(C)NC(=O)CCCn1c(=O)c2cccn2c2ccccc21 (stereo not drawn) | inconclusive: 0.0794 µM [cytotoxic, partial curve, poor fit] | –
Cc1cc2oc(C(=O)Nc3ccc(S(=O)(=O)Nc4nccs4)cc3)cc(=O)c2cc1Cl | – | inactive: 20.6%
COc1ccc(C2(C(=O)Nc3c(C)n(C)n(-c4ccccc4)c3=O)CCCC2)cc1OC | – | inactive: 9.58%
CCC(C(=O)NC1CCCCC1)n1c(SCc2ccccc2F)nc2ccncc21 (stereo not drawn) | inconclusive: 7.94 µM [cytotoxic, partial curve] | –
O=S(=O)(CCSc1nc2ccccc2o1)c1nc2ccccc2s1 | inconclusive: 31.6 µM [cytotoxic, single point] | –
CN(C)c1ccnc(NCc2ccccc2)c1C#N | – | inactive: -9.1%
Cc1ccc(CNc2nc(-c3ccco3)nn2C(=O)c2ccccc2[N+](=O)[O-])cc1 | active: 10 µM | –
C[C@@H]1CNCCN1S(=O)(=O)c1cccc2cnccc12 | inconclusive: 31.6 µM [cytotoxic, single point] | –
O=C1c2[nH]nc(-c3ccccc3O)c2C(c2cccc(OCc3ccccc3)c2)N1CCCO (stereo not drawn) | inconclusive: 31.6 µM [cytotoxic, single point] | –
COc1cc(C(=O)Nc2ccc3nc4n(c(=O)c3c2)CCCCC4)cc(OC)c1OC | inconclusive: 12.6 µM [cytotoxic, single point] | –
Cc1cc(NC(=O)Nc2ccc3c(ccn3C)c2)sn1 | inconclusive: 15.8 µM [cytotoxic, partial curve] | –
CCc1ccc(NC(=O)Cn2c(=O)c3cccn3c3ccccc32)cc1 | inconclusive: 3.98 µM [cytotoxic, partial curve] | –
O=C(O)c1cc(-c2cccs2)nc2cc3c(cc12)OCCO3 | active: 10 µM | –
CCOC(=O)Cn1c(=O)n(CC2CCCO2)c2nc(-c3ccc(OC)cc3OC)nc(C(N)=O)c21 (stereo not drawn) | – | inactive: -1.44%
CCOc1ccc(C2c3c(-c4ccc(C)cc4)n[nH]c3C(=O)N2c2ccc(Cl)cc2)cc1 (stereo not drawn) | inconclusive: 15.8 µM [cytotoxic, single point] | –

SMILES | Potency | activity change, negative = cell killing
COc1ccc(-n2nc3cc(C)c(NC(=O)c4cccnc4)cc3n2)cc1 | – | inactive: -16.1%
CCOC(=O)c1c(NC(=O)c2cc(CC)on2)sc(C)c1C | – | inactive: 3.8%
Cc1ccc2c(c1)N(C(=O)CCC(=O)Nc1ccccc1Cl)CC(C)O2 (stereo not drawn) | inconclusive: 0.199 µM [cytotoxic, full curve, poor fit] | –
CCOc1ccccc1NC(=O)c1cn(C2CCCC2)c(=O)c2c1c1ccccc1n2C | inconclusive: 10 µM [cytotoxic, partial curve] | –
COc1ccccc1NC(=O)c1cc(S(=O)(=O)N(C)C2CCCCC2)ccc1F | inconclusive: 25.1 µM [cytotoxic, partial curve, poor fit] | –
COCCCNC(=O)c1ccc2c(c1)N=C(C)c1c(C)ccc(C)c1S2 | inconclusive: 0.0501 µM [cytotoxic, full curve] | –
Cc1nnc(NC(=O)CSc2nccn2-c2cccc(Cl)c2)s1 | inconclusive: 0.0316 µM [cytotoxic, full curve, poor fit] | –
COc1ccc(-c2cc(=O)n3[nH]cnc3n2)cc1 | inconclusive: 12.6 µM [cytotoxic, single point] | –
CCC1CN(C(=O)NCc2ccc(C)cc2)c2cc(C)ccc2O1 (stereo not drawn) | inconclusive: 31.6 µM [cytotoxic, single point] | –
Cc1ccc(NC(=O)CSc2nc3ccccc3nc2Cc2ccccc2F)cc1F | inconclusive: 31.6 µM [cytotoxic, single point] | –
Cn1nnnc1SCCCNCc1ccc(-c2ccc(Br)cc2)o1 | inconclusive: 6.31 µM [cytotoxic, partial curve] | –
COc1ccccc1CNC(=O)CCn1c(=O)c2ccccc2n(CC(=O)Nc2ccc(C)cc2)c1=O | inconclusive: 15.8 µM [cytotoxic, single point] | –
CCOC(=O)c1oc2ccccc2c1CSc1nnnn1-c1ccc(OC)cc1 | – | inactive: -7.06%
Cc1[nH]c2ccccc2c1SCC(=O)N1CCOCC1 | active: 12.6 µM | –
O=C(CSc1ncc(CO)n1Cc1ccccc1)Nc1nc2ccccc2s1 | inconclusive: 12.6 µM [cytotoxic, partial curve] | –
CC(=O)COc1ccc2c3c(c(=O)oc2c1)CCCC3 | – | inactive: -13.4%
Cc1ccc(-c2nc3n(n2)C(c2ccccc2C)C=C(c2ccc(Cl)cc2)N3)cc1 (stereo not drawn) | – | inactive: -7%
c1ccc(-c2ccccc2-c2nc(-c3ccncc3)no2)cc1 | – | inactive: 15.2%
O=C(NCc1cccs1)C1CCC(CNS(=O)(=O)c2ccc(Br)s2)CC1 (stereo not drawn) | – | inactive: 1.79%
Cc1cccn2cc(-c3ccccc3)nc12 | inconclusive: 15.8 µM [cytotoxic, partial curve] | –
Cc1cccc(C)c1NC(=O)CCSc1nc(-c2ccc3c(c2)OCO3)cc(C(F)(F)F)n1 | inconclusive: 10 µM [cytotoxic, single point] | –
CC(C)c1ccccc1N=C1SCCN1C1CCS(=O)(=O)C1 (stereo not drawn) | – | inactive: 2.82%
Cc1ccc(-c2nc(-c3cccnc3)no2)cc1 | inconclusive: 10 µM [cytotoxic, partial curve] | –
COc1ccccc1NC(=O)CN(C)S(=O)(=O)c1cccc2cccnc12 | inconclusive: 0.005 µM [cytotoxic, full curve, poor fit] | –
Cc1ccc(C)c(NC(=O)c2cnn(-c3ccc(F)cc3F)c2C2CCNCC2)c1 | inconclusive: 1.26 µM [cytotoxic, single point] | –

SMILES | Potency | activity change, negative = cell killing
COc1ccc(NC(=O)CCS(=O)(=O)c2cc3c(cc2C)NC(=O)CO3)cc1Cl | – | inactive: -4.16%
Cc1cc(Nc2ccccc2)nn1C(=O)c1ccccc1 | inconclusive: 31.6 µM [cytotoxic, single point] | –
CCOc1ccc(N2Cc3ncccc3C2=O)cc1 | inconclusive: 10 µM [cytotoxic, single point] | –
CN(Cc1ccccc1)C(=O)CSc1c2c(nc3ccc(Cl)cc13)CCCC2 | inconclusive: 15.8 µM [cytotoxic, single point] | –
COc1ccc(-n2nc(C(=O)NCCc3ccc(Cl)cc3)c3c4ccccc4n(C)c3c2=O)cc1 | inconclusive: 10 µM [cytotoxic, partial curve, poor fit] | –
O=C(Cn1c(=O)c2cccn2c2ccc(F)cc21)NCc1cccc(Cl)c1 | – | inactive: -17.7%
CN(C)S(=O)(=O)c1ccc(C(=O)N(Cc2cccnc2)c2nc3c(F)cc(F)cc3s2)cc1 | – | inactive: -14.5%
CC(=O)c1ccc(N2Cc3ccccc3C2=NC(=O)c2cccs2)cc1 | inconclusive: 11.2 µM [cytotoxic, partial curve] | –
CCOc1ccc(CCNC(=O)CSCc2nc(-c3cccc(C)c3)oc2C)cc1OCC | – | inactive: -14.7%
CCOc1ccc2nc(NC(=O)c3nc(SC(C)C)ncc3Cl)sc2c1 | inconclusive: 12.6 µM [cytotoxic, single point] | –
CCOC(=O)Nc1ccc2c(c1)N(C(=O)CCN1CCOCC1)c1ccccc1S2=O (stereo not drawn) | inconclusive: 31.6 µM [cytotoxic, single point] | –
CCOC(=O)Cc1c(C)nc2c(-c3ccc(Cl)cc3)c[nH]n2c1=O | inconclusive: 20 µM [cytotoxic, single point] | –
COc1ccc(-n2ccn(CC(=O)Nc3ccccc3C(F)(F)F)c(=O)c2=O)cc1OC | – | inactive: 3.08%
Cc1nnc(N2CCN(C(=O)Nc3cc(F)ccc3F)CC2)c2nn(-c3ccc(Cl)cc3)c(C)c12 | active: 12.6 µM | –
O=C(N/N=C\c1ccccc1O)c1ccccc1O | active: 2 µM | –
CCc1ccccc1NC(=O)CCc1c(C)nc2cc(-c3ccccc3)nn2c1C | – | inactive: -8.2%
Cc1ccc(-c2nnc3sc(C4COc5ccccc5O4)nn23)cc1 (stereo not drawn) | – | inactive: 4.41%
CCOc1cc(S(=O)(=O)NCCc2c(C)[nH]c3ccc(C)cc23)ccc1Br | inconclusive: 15.8 µM [cytotoxic, single point] | –
O=c1[nH]c(SCc2c(F)cccc2Cl)nc2c1CCCC2 | inconclusive: 31.6 µM [cytotoxic, single point] | –
COC(=O)c1ccccc1NC(=O)CCS(=O)(=O)c1nc(-c2ccc3c(c2)OCO3)cc(C(F)(F)F)n1 | inconclusive: 6.31 µM [cytotoxic, single point] | –
Clc1ccc(-c2nnc3sc(-c4ccco4)nn23)c(Cl)c1 | – | inactive: 0.453%
CCOc1ccc(C2c3c(oc4ccccc4c3=O)C(=O)N2c2ccc(C)cn2)cc1OC (stereo not drawn) | – | inactive: 0.406%
O=C1CCCc2nc(N3CCc4ccccc43)ncc21 | inconclusive: 15.8 µM [cytotoxic, partial curve] | –
